Reference: the supplement of paper PMC4967469

How the values were obtained:
Experiment in all cases: Viability of human cancer cell lines after 72 h of drug (GDSC screen)
Bleomycin = compound: Cc1c(N)nc([C@H](CC(N)=O)NC[C@H](N)C(N)=O)nc1C(=O)N[C@H](C(=O)N[C@H](C)[C@@H](O)[C@H](C)C(=O)N[C@H](C(=O)NCCc1nc(-c2nc(C(=O)NCCC[S+](C)C)cs2)cs1)[C@@H](C)O)[C@@H](OC1OC(CO)C(O)C(O)C1OC1OC(CO)C(O)C(OC(N)=O)C1O)c1cnc[nH]1 [Bleomycin]
Procedure: (§1)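 Human cancer cell lines in 384-well plates, medium with 10% serum, drug for 72 h over a 256-fold dose range (nine 2-fold or five 4-fold steps up to the top dose). Adherent lines were fixed and stained with the nucleic acid dye Syto60, suspension lines read with resazurin; signal relative to control wells, capped at 0 and 100%. One two-parameter sigmoid per drug and line, fitted in a mixed model over all curves with the slope shared within a line.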

HG-5-88-01 = compound: COc1cc(N2CCC(C(N)=O)CC2)ccc1Nc1nc(N)c(Cl)c(Nc2ccccc2S(=O)(=O)C(C)C)n1 [HG-5-88-01]; conditions: top dose 10 µM; top dose inferred
Procedure: as §1

Tamoxifen = compound: CC/C(=C(\c1ccccc1)c1ccc(OCCN(C)C)cc1)c1ccccc1 [Tamoxifen]; conditions: top dose 5 µM
Procedure: as §1

VNLG/124 = compound: CCCC(=O)OCc1ccc(OC(=O)/C=C(C)/C=C/C=C(C)/C=C/C2=C(C)CCCC2(C)C)cc1 [VNLG/124]; conditions: top dose 5.12 µM; top dose inferred
Procedure: as §1

OSI-930 = compound: O=C(Nc1ccc(OC(F)(F)F)cc1)c1sccc1NCc1ccnc2ccccc12 [OSI-930]; conditions: top dose 10.24 µM
Procedure: as §1

NSC-87877 = compound: O=S(=O)(O)c1ccc2cc(N=Nc3cc(S(=O)(=O)O)c4cccnc4c3O)ccc2c1 [NSC-87877]; conditions: top dose 16 µM; top dose inferred
Procedure: as §1

Masitinib = compound: Cc1ccc(NC(=O)c2ccc(CN3CCN(C)CC3)cc2)cc1Nc1nc(-c2cccnc2)cs1 [Masitinib]; conditions: top dose 20 µM
Procedure: as §1

BX-912 = compound: O=C(Nc1cccc(Nc2ncc(Br)c(NCCc3cnc[nH]3)n2)c1)N1CCCC1 [BX-912]; conditions: top dose 10.24 µM; top dose inferred
Procedure: as §1

LAQ824 = compound: O=C(/C=C/c1ccc(CN(CCO)CCc2c[nH]c3ccccc23)cc1)NO [LAQ824]; conditions: top dose 1.024 µM; top dose inferred
Procedure: as §1

Elesclomol = compound: CN(NC(=O)CC(=O)NN(C)C(=S)c1ccccc1)C(=S)c1ccccc1 [Elesclomol]; conditions: top dose 0.2 µM; top dose inferred
Procedure: as §1

[1] = top dose 50 µM, screen: GDSC drug entry 1378, top dose inferred
[2] = top dose 64 µM, screen: GDSC drug entry 190

Row | Cell Line | AUC (Bleomycin; [1]) | IC50 (Bleomycin; [1]) [µM] | AUC (Bleomycin; [2]) | IC50 (Bleomycin; [2]) [µM] | AUC (HG-5-88-01) | IC50 (HG-5-88-01) [µM] | AUC (Tamoxifen) | IC50 (Tamoxifen) [µM] | AUC (VNLG/124) | IC50 (VNLG/124) [µM] | AUC (OSI-930) | IC50 (OSI-930) [µM] | AUC (NSC-87877) | IC50 (NSC-87877) [µM] | AUC (Masitinib) | IC50 (Masitinib) [µM] | AUC (BX-912) | IC50 (BX-912) [µM] | AUC (LAQ824) | IC50 (LAQ824) [µM] | AUC (Elesclomol) | IC50 (Elesclomol) [µM]
1 | GI-ME-N (neuroblastoma, adherent) | 0.173 | 0.209 | 0.284 | 0.773 | 0.664 | 2.13 | 0.956 | > 5 | 0.889 | > 5.12 | 0.921 | > 10.2 | 0.977 | > 16 | 0.783 | 11.8 | 0.644 | 1.86 | 0.411 | 0.0333 | 0.877 | > 0.2
2 | C-4-I (cervix, adherent) | 0.183 | 0.314 | 0.381 | 1.83 | 0.958 | > 10 | 0.921 | > 5 | 0.985 | > 5.12 | 0.969 | > 10.2 | 0.86 | 15.3 | 0.969 | > 20 | 0.969 | > 10.2 | 0.539 | 0.0825 | 0.304 | 0.00334
3 | 8505C (thyroid, adherent) | 0.289 | 0.761 | 0.377 | 1.79 | 0.954 | > 10 | 0.983 | > 5 | 0.912 | > 5.12 | 0.985 | > 10.2 | 0.984 | > 16 | 0.91 | > 20 | 0.816 | 6.12 | 0.317 | 0.019 | 0.423 | 0.00759
4 | LB373-MEL-D (melanoma, adherent) | 0.884 | > 50 | 0.815 | 34.4 | 0.888 | > 10 | 0.989 | > 5 | 0.99 | > 5.12 | 0.979 | > 10.2 | 0.99 | > 16 | 0.979 | > 20 | 0.981 | > 10.2 | 0.538 | 0.081 | 0.529 | 0.015
5 | NCI-H747 (large intestine, adherent) | 0.622 | 7.31 | 0.33 | 1.2 | 0.85 | > 10 | 0.975 | > 5 | 0.94 | > 5.12 | 0.903 | > 10.2 | 0.979 | > 16 | 0.904 | > 20 | 0.791 | 5.75 | 0.439 | 0.0421 | 0.726 | 0.0639
6 | COLO-800 (melanoma, adherent) | 0.094 | < 0.195 | 0.172 | 0.423 | 0.648 | 1.59 | 0.949 | > 5 | 0.986 | > 5.12 | 0.967 | > 10.2 | 0.936 | > 16 | 0.806 | 9.83 | 0.907 | > 10.2 | 0.53 | 0.077 | 0.65 | 0.0322
7 | D-542MG (glioma, adherent) | 0.745 | 18.7 | 0.858 | > 64 | 0.963 | > 10 | 0.978 | > 5 | 0.984 | > 5.12 | 0.935 | > 10.2 | 0.982 | > 16 | 0.956 | > 20 | 0.981 | > 10.2 | 0.577 | 0.109 | 0.44 | 0.00823
8 | CCK-81 (large intestine, adherent) | 0.902 | > 50 | 0.731 | 17.4 | 0.966 | > 10 | 0.989 | > 5 | 0.975 | > 5.12 | 0.969 | > 10.2 | 0.949 | > 16 | 0.883 | 19.3 | 0.984 | > 10.2 | 0.482 | 0.0573 | 0.946 | > 0.2
9 | PL-21 (acute myeloid leukaemia, suspension) | 0.96 | > 50 | 0.508 | 4.23 | 0.79 | 5.29 | 0.956 | > 5 | 0.814 | 3.4 | 0.951 | > 10.2 | 0.981 | > 16 | 0.86 | > 20 | 0.661 | 1.95 | 0.527 | 0.0769 | 0.868 | > 0.2
10 | KELLY (neuroblastoma, adherent) | 0.59 | 5.37 | 0.804 | 28.5 | 0.953 | > 10 | 0.986 | > 5 | 0.958 | > 5.12 | 0.973 | > 10.2 | 0.982 | > 16 | 0.881 | 17.6 | 0.912 | > 10.2 | 0.487 | 0.0593 | 0.469 | 0.0104
11 | HT55 (large intestine, adherent) | 0.963 | > 50 | 0.943 | > 64 | 0.844 | 7.11 | 0.99 | > 5 | 0.985 | > 5.12 | 0.952 | > 10.2 | 0.939 | > 16 | 0.99 | > 20 | 0.99 | > 10.2 | 0.618 | 0.135 | 0.939 | > 0.2
12 | KINGS-1 (glioma, adherent) | 0.803 | 36.6 | 0.952 | > 64 | 0.972 | > 10 | 0.978 | > 5 | 0.97 | > 5.12 | 0.968 | > 10.2 | 0.981 | > 16 | 0.844 | > 20 | 0.911 | > 10.2 | 0.561 | 0.0997 | 0.802 | 0.146

The IC50 comes from the fitted curve, where viability falls to half of the control; fits outside the tested doses are given as limits. AUC, from the same fit, is the share of area under the viability curve across the 256-fold dose range; values near 1 show little effect. For part of these data: Any top dose called inferred comes from the curve model; the source does not state it. For part of these data: Drugs with an entry number were screened twice under separate entries, and the two screens often disagree.
